According to patent US6710090B2, “Inhibitory or blocking agents of molecular generating and/or inducing functions” (priority 1994, dated 2004):

Biological target: T1, insulin (Homo sapiens, UniProt P01308)
T1 construct: Effect on Physiological Function of Vasopressin and Insulin as Peptides; purchased Novo Ltd
Assay: Physiological function of insulin treated with Yoshixol, blood sugar
Format: in vivo
Settings: rabbit, insulin 5 units/Kg treated with Yoshixol 4 μl; untreated insulin maximal fall 45 mg/dl
Method: Each vasopressin and insulin has a physiological effect such as a rise of blood pressure and a fall of sugar level in blood respectively. An effect of Yoshixol on these physiological functions was investigated and compared by injection of each hormone without or with treatment with Yoshixol in rabbit in vivo. When vasopressin (100 ng/Kg, Sigma Co. Saint Louis, Mo., USA) without treatment with Yoshixol was injected intravenously, blood pressure increased by 15-25 mmHg so that this increased level was maintained for about 25 minutes. But, vasopressin (100 ng/Kg) treated with Yoshixol (4 μl) caused a increase in blood pressure of only about 5 mmHg (referred FIG. 6).

Q: For `C=C1CC(C)(C)C=CC1=O` [Yoshixol, 4,4-dimethyl-6-methylene-2-cyclohexen-1-one], which “change in blood sugar level” value is on record?
A: 12 mg/dL
